# In the supplement of paper PMC12217912:
# The other results are listed elsewhere or left out. The full chains were built here from the parent and the listed change. Values near 0.05 are background.
# B1: TEV protease; numbered along this chain (parent)
# chain: MGESLFKGPRDYNPISSSICHLTNESDGHTTSLYGIGFGPFIITNKHLFRRNNGTLVVQSLHGVFKVKDTTTLQQHLVDGRDMIIIRMPKDFPPFPQKLKFREPQREERICLVTTNFQTKSMSSMVSDTSCTFPSGDGIFWKHWIQTKDGQCGSPLVSTRDGFIVGIHSASNFTNTNNYFTSVPKNFMELLTNQEAQQWVSGWRLNADSVLWGGHKVFMVKPEEPFQPVKEATQL
# Variants of: B1
# Experiment: raw area under fraction-flipped curve 0-4 h after induction (AUC4h, not background-subtracted), DNA-recorder readout of cleavage of the substrate (dimensionless); higher = more cleavage of the substrate by the protease variant
# Conditions: temperature: 34 °C; time window: 0-4 h after rhamnose induction
# Procedure: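 In vivo DNA recorder in E. coli TOP10(DE3) ΔrhaA at 34 °C. Each TEVp single-site mutant (parent TEVp 0) is paired with a single-site variant of the 7-mer TEVs (canonical ENLYFQ|S). The substrate sits between flexible linkers in a Bxb1-sfGFP-TEVs-SsrA fusion, so cleavage stabilises Bxb1 and speeds flipping of a recombination array, read by NGS. The value is the raw area under the fraction-flipped curve over 0-4 h after rhamnose induction (AUC4h), with ≥20 reads per time point. It is not background-subtracted; inactive controls average about 0.047.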
# 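Note: Bxb1 expression induced with 0.2% (w/v) L-rhamnose at OD600 near 0.5, cultures sampled hourly, flipped fraction per protease–substrate barcode pair counted by paired-end Illumina sequencing.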
Variant,area with substrate ECLYFQS,area with substrate EDLYFQS,area with substrate EELYFQS,area with substrate EGLYFQS,area with substrate EILYFQS,area with substrate EKLYFQS,area with substrate EMLYFQS,area with substrate EPLYFQS,area with substrate ERLYFQS,area with substrate ESLYFQS,area with substrate ETLYFQS,area with substrate EVLYFQS,area with substrate EQLYFQS,area with substrate EWLYFQS,area with substrate EYLYFQS,area with substrate EFLYFQS,area with substrate EHLYFQS,area with substrate ELLYFQS
D27M,0.0971,0.0894,0.105,0.0934,0.0771,0.0803,0.0841,0.0886,0.103,0.0981,0.0934,0.0954,,,,,,
T55N,0.0968,0.119,,0.0793,0.0795,0.108,0.0974,0.0741,0.102,0.103,,0.0938,0.0953,0.0723,0.0968,,,
T55A,0.0878,,,,0.0919,0.123,0.0858,0.165,0.076,0.106,,0.104,0.12,0.098,0.0864,0.183,0.0948,
G54E,0.0672,,0.0902,0.0576,0.0759,0.0694,0.0863,0.0754,0.0439,0.055,,0.0699,0.0752,0.0793,0.0715,0.0534,0.0842,
G37H,0.0898,,,0.0824,,0.0864,,0.105,0.0941,0.0889,,0.0721,0.0831,0.0736,0.0869,0.0994,,
F38H,0.0921,0.0961,0.103,0.0926,0.0739,0.0957,0.118,0.128,0.0897,0.106,,,0.119,,,,,
R50G,0.094,,0.138,0.0927,0.148,,,0.132,0.131,0.116,,0.0623,0.115,0.0827,,,0.133,
R50M,0.128,0.172,,,0.127,0.142,0.165,0.16,0.167,0.159,,,0.135,0.12,0.147,,0.154,0.16
T23D,0.166,0.119,0.0898,,,,0.121,0.114,0.105,0.0955,0.098,,0.103,0.083,0.131,,,0.0791
Q59P,0.0411,0.0495,,,,,0.0275,,,0.0443,,0.0108,,,0.0419,,,
N53Y,0.0656,0.078,,0.0711,0.0794,0.0723,0.0838,,0.0823,0.0678,,,0.0797,0.0635,0.0899,0.0605,0.077,0.0832
N53F,0.085,0.0996,,,0.061,0.085,,0.0867,0.0733,0.0693,,,0.0862,,,0.108,0.0619,0.0817
N53W,0.0727,0.109,0.0866,,0.0862,0.0888,0.0729,0.0839,0.0742,0.0812,0.0792,0.0526,0.0835,,0.0801,,0.0896,0.0588
P9I,0.128,0.129,0.132,,0.101,0.114,,0.126,0.132,0.0527,0.132,,0.156,,,,,0.0732
